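Growth conditions: 96-well plates. Treatment: test compound, 48 hours, 5 concentrations. Analysis: linear interpolation between bracketing concentrations; unreached endpoints set to highest concentration. At the GI50, growth is halved.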 Activity calls are given as the source filed them. Cut-off read from the data, not from the text of the source: active = GI50 up to about 1.1 µM and inactive = higher.
Each compound was assayed on NCI-H322M (assay: NCI tumour cell line growth inhibition, 48 h).
For `COc1cccc(/N=N/C(=N/NC(=O)c2cc(Cl)ccc2O)c2ccc(N(CCC#N)CCC#N)cc2C)c1`, the GI50 was inactive: 54.7 µM.
For `CC(=O)NC1C(O)C(O)C(CO)OC1n1nc(SCc2ccccc2)c(=O)[nH]c1=O` (stereo not drawn), the GI50 was inactive: > 100 µM.
`CCC1(c2ccncc2)CCC(=O)NC1=O` (stereo not drawn) [ROGLETIMIDE] was tested, and the GI50 was inactive: > 100 µM.
`O=c1c(Cc2ccccc2Cc2c(O)oc3ccccc3c2=O)c(O)oc2ccccc12` was tested, and the GI50 was inactive: > 100 µM.
With `N#Cc1cccc(Nc2ccccc2SSc2ccccc2Nc2cccc(C#N)c2)c1` the GI50 was inactive: 16.4 µM.
In the case of `CN(C)CCCN1c2ccc(O)cc2Sc2ccc(Cl)cc21` [7-HYDROXYCHLORPROMAZINE], the GI50 is reported as inactive: 14.5 µM.
For `O=C1C2C3C=CC(C2C(=O)N1CN1CCOCC1)C1C2C(=O)N(CN4CCOCC4)C(=O)C2C31` (stereo not drawn), the GI50 was inactive: > 100 µM.
With `CCOC(=O)/C=C(/C(=O)OCC)n1cc(C)c(=O)n(Cc2cn(CCCCOC(C)=O)nn2)c1=O` the GI50 was inactive: > 100 µM.
For `CC1(C)C(=NNC(=S)NN)C(C)(C)C1=NNC(=S)NN`, the GI50 was inactive: > 100 µM.
`COC(=O)C1c2c(c3ccccc3n2C(=O)OC)CCN2CCC1C(S(=O)(=O)c1ccccc1)C2=O` (stereo not drawn) was tested, and the GI50 was inactive: > 100 µM.
`O=c1cc(-c2ccccc2)[nH]c2c(F)ccc(F)c12` was tested, and the GI50 was inactive: 68.2 µM.
With `CCCCCCCCCCCCCCCCOP(=O)(O)OP(=O)(O)OCC1OC(n2ccc(N)nc2=O)C(O)C1O` (stereo not drawn) the GI50 was inactive: > 100 µM.
With `C/C(CC(=O)Nc1cccc(C)c1C)=N\NC(N)=S` the GI50 was inactive: > 100 µM.
In the case of `CCOC(=O)CC1(c2cccc3ccccc23)OC(=O)c2ccccc21` (stereo not drawn), the GI50 is reported as inactive: > 100 µM.
With `c1ccc(-c2c3c(nc4c2CC[C@H]4NC2=NCCN2)[C@@H](NC2=NCCN2)CC3)cc1` the GI50 was inactive: > 100 µM.
For `CC(=O)c1sc2c(c1OC(=O)c1ccco1)c(=O)n(-c1ccccc1)c(=S)n2-c1ccccc1`, the GI50 was inactive: 24.7 µM.
In the case of `O=C1c2ccc(O)c(O)c2C(=O)c2c(O)ccc(O)c21` [QUINALIZARIN], the GI50 is reported as inactive: 24.9 µM.
In the case of `C=C1C(=O)OC2/C=C(\C)CC(O)/C=C(/CO)CC(OC(=O)/C(C)=C/C)C12` (stereo not drawn), the GI50 is reported as inactive: 114 µM.
`CN1CCN(C)C12C=CC=CC21CC1` was tested, and the GI50 was inactive: > 100 µM.
For `OCCC1(O)CCC(O)CC1` (stereo not drawn), the GI50 was inactive: > 100 µM.
With `CC(=O)C1=C(C)N(c2ccc(C)cc2)C2(O)C=CC(=O)C3C(=O)N(c4ccccc4)C(=O)C132` (stereo not drawn) the GI50 was inactive: 18.5 µM.
For `CSc1ncnc2c1ncn2CC(=O)C1CCC2C3CCC4=CC(=O)CCC4(C)C3CCC12C` (stereo not drawn), the GI50 was inactive: 19.6 µM.
With `CC(Cc1ccccc1)NC1=NCCO1` (stereo not drawn) the GI50 was inactive: 78.5 µM.
`COc1ccc2c(c1)CCc1c-2n(CCN(C)C)c2ccc(OC)cc12` was tested, and the GI50 was inactive: 13 µM.
In the case of `O=C(O)C(C1NCCS1)N1Cc2ccccc2C1` (stereo not drawn), the GI50 is reported as inactive: > 100 µM.
In the case of `COC(=O)c1ccccc1/C=C1\Cc2ccc(C)c(C)c2C1=O`, the GI50 is reported as inactive: > 100 µM.
With `O=C(O)CCCSC(=O)Nc1ccc(/N=N/c2ccccc2)cc1` the GI50 was inactive: > 100 µM.
For `O=C1NC(O)c2cc3ccccc3cc2O1` (stereo not drawn), the GI50 was inactive: 47.4 µM.
In the case of `COC(=O)C1(NC(=O)C(CC(=O)OCc2ccccc2)NC(=O)OCc2ccccc2)CCCCCC1` (stereo not drawn), the GI50 is reported as inactive: > 100 µM.
`CN(C)c1ccc(/C=C/c2ccc(/C=C/c3ccc(N(C)C)cc3)cc2)cc1` was tested, and the GI50 was inactive: > 100 µM.
For `NCCCCN(CCCN)C(=O)c1ccccc1`, the GI50 was inactive: > 100 µM.
`C=C(Cl)/C(=C\Br)CCC(Cl)C(C)C.C=C(Cl)/C(=C\Cl)CCC(Cl)C(C)C` (stereo not drawn) was tested, and the GI50 was inactive: 15.4 µM.
In the case of `COc1cc2c3c(c1OC)C1(C=CC(=O)C=C1)CC3N(C(=O)OC(C)(C)C(Cl)(Cl)Cl)CC2` (stereo not drawn), the GI50 is reported as inactive: 16.3 µM.
`Cc1ccc(S(=O)(=O)N/N=C/C(C)C)cc1` was tested, and the GI50 was inactive: > 100 µM.
With `CC1(C)OCC2OC3(c4nc(C#N)c(N)o4)OC(C)(C)OC3C2O1` (stereo not drawn) the GI50 was inactive: > 100 µM.
For `S=C(NCc1ccccc1)N/N=C/c1ccccn1`, the GI50 was inactive: 7.23 µM.
In the case of `Cn1c(=O)nc2n(-c3cc(Cl)ccc3Cl)c3ccccc3nc-2c1=O`, the GI50 is reported as inactive: 5.65 µM.
In the case of `COC(=O)c1ccccc1N1C(=O)Cc2ccccc2C1=O`, the GI50 is reported as inactive: > 100 µM.
`COC1=CC(=O)c2c(c(O)c3oc4cc(OC)cc(C)c4c(=O)c3c2O)C1=O` [BIKAVERIN] was tested, and the GI50 was inactive: 4.53 µM.
In the case of `CC/C(=C\c1ccc(Cl)c(Cl)c1)[N+](=O)[O-]`, the GI50 is reported as inactive: 14.2 µM.
For `OCCn1cnc2c(SCc3ccccc3)ncnc21`, the GI50 was inactive: > 100 µM.
With `CC1(C)OCC(C2OC(=O)C(OCc3ccccc3)=C2OCc2ccccc2)O1` (stereo not drawn) the GI50 was inactive: > 100 µM.
For `O=c1[nH]c2cc([N+](=O)[O-])c(Nc3c4ccccc4nc4ccccc34)c([N+](=O)[O-])c2[nH]1`, the GI50 was active: 1.03 µM.
`CCN1C(=O)C(=C/C=C/c2ccc(N(CC)CC)cc2)C(=O)N(CC)C1=S` was tested, and the GI50 was inactive: > 100 µM.
With `CC1NC(=O)C(C)C(c2ccccc2)N(N=O)C1c1ccccc1` (stereo not drawn) the GI50 was inactive: > 100 µM.
`COc1ccc([N+](=O)[O-])c2c(NCC(O)CO)ccnc12` (stereo not drawn) was tested, and the GI50 was inactive: 98.4 µM.
With `CN(C(=O)C12C3C4C5C3C1(C(=O)O)C5C42)C(C)(C)C` (stereo not drawn) the GI50 was inactive: > 100 µM.
In the case of `Cc1c(C#N)c2nc3ccccc3n2c(=O)/c1=C/Nc1ccc(Cl)cc1`, the GI50 is reported as inactive: 34.3 µM.
For `O=C(NCCN1CCOCC1)c1ccc2cc(C(=O)N3CC(CCl)c4ccc([N+](=O)[O-])cc43)[nH]c2c1` (stereo not drawn), the GI50 was inactive: 27 µM.
In the case of `Cc1cccc(/C=N/NC(=S)N2CCCCCC2)n1`, the GI50 is reported as active: < 0.0277 µM.
For `CC(=O)c1ccc(NC(=O)CSc2nc(C)nc3c2sc(=S)n3-c2ccccc2)cc1`, the GI50 was inactive: > 10 µM.
With `[O-][S+]1C(=c2ccc(=C3Sc4ccccc4S3)cc2)Sc2ccccc21` (stereo not drawn) the GI50 was inactive: 17.7 µM.
For `Cc1cc(=O)oc2c1cc(OCC(=O)OCCN1CCCCC1)c1occ(C)c12`, the GI50 was inactive: > 100 µM.
For `Nn1c(CCCCCCCCc2nnc(COc3ccc(Cl)cc3)n2N)nnc1COc1ccc(Cl)cc1`, the GI50 was inactive: 95.3 µM.
`COc1ccc(C(=O)O[C@H]2[C@@H]3C=CO[C@@H](OC4OC(CO)C(O)C(O)C4O)[C@@H]3[C@@]3(CO)O[C@@H]23)cc1O` (stereo partly drawn) was tested, and the GI50 was inactive: > 100 µM.
`Cc1cc(O)c2c(c1)OC1(C)CCC3C(C)(C)CCCC34COC2C14` (stereo not drawn) was tested, and the GI50 was active: 0.0291 µM.
With `CN(C)c1ncc(-c2c[nH]c3ccccc23)nc1-c1c[nH]c2ccccc12` the GI50 was inactive: 3.84 µM.
For `Cc1cccc2c(N)c3cccc(C(=O)NCC[N+](C)(C)Cc4ccc([N+](=O)[O-])s4)c3nc12`, the GI50 was inactive: 4.94 µM.
With `Nc1c2c(nc3ccccc13)-c1ccccc1NCCC2` the GI50 was inactive: 33.3 µM.
With `Cc1c(NC(=O)C(C)(C)Br)c(=O)oc2c(C)c3occc(=O)c3cc12` the GI50 was inactive: 91 µM.
In the case of `CC1CC2C(=O)N(c3ccccc3)C(=O)C2c2[nH]c3ccccc3c21` (stereo not drawn), the GI50 is reported as inactive: > 100 µM.
For `CC(=O)NC1CCC(NC(=O)OC(C)(C)C)C(NC(=O)OC(C)(C)C)C1` (stereo not drawn), the GI50 was inactive: > 100 µM.
With `O=C(O)CSC(CC(=O)c1ccc(Cl)cc1)c1ccc(Cl)cc1` (stereo not drawn) the GI50 was inactive: 40.5 µM.
For `O=C(Cc1ccccc1)N/N=C/c1ccccc1O`, the GI50 was inactive: 18.8 µM.
`O=C(Oc1ccccc1)c1cc2cc(CCl)ccc2oc1=O` was tested, and the GI50 was inactive: 54.5 µM.
In the case of `c1ccc(C2SCc3nc4cc5ccccc5cc4n32)cc1` (stereo not drawn), the GI50 is reported as inactive: > 100 µM.
`NC(Cc1n[nH]c2ccccc12)C(=O)O` (stereo not drawn) was tested, and the GI50 was inactive: > 100 µM.
`Nc1nc(N)c(N=O)c(Nc2ccc(I)cc2)n1` was tested, and the GI50 was inactive: 32.7 µM.
For `NC(CSSCC(N)Cc1ccccc1)Cc1ccccc1` (stereo not drawn), the GI50 was inactive: 74.6 µM.
With `COC1(OC)CC2OC1C1N=NN(C(=O)OC(C)(C)C)C21` (stereo not drawn) the GI50 was inactive: > 100 µM.
In the case of `O=C1/C(=C/c2ccc(Cl)cc2)N=C(c2ccccc2)N1/N=C/c1ccccc1O`, the GI50 is reported as inactive: 1.56 µM.
For `CC1(C)N=C(N)N=C(N)N1c1cccc(OCc2cccc(N)c2)c1`, the GI50 was inactive: 75.2 µM.
In the case of `CC(=O)OC1=C(c2ccccc2)S(=O)(=O)c2ccccc21`, the GI50 is reported as inactive: > 100 µM.
In the case of `C(=N\CCCN1CCN(CCC/N=C/c2cccc3ccccc23)CC1)/c1cccc2ccccc12`, the GI50 is reported as inactive: > 100 µM.
With `O=C(CSc1nc2ccccc2s1)c1sc2sc3ccccc3[n+]2c1[O-]` the GI50 was inactive: > 100 µM.
`O=[N+]([O-])c1ccc(CNC2=NNS(=O)(=O)c3ccccc32)cc1` was tested, and the GI50 was inactive: > 100 µM.
For `Cc1cn(CCCCCCOC(=O)NC(CCCNC(N)=O)C(=O)O)c(=O)[nH]c1=O` (stereo not drawn), the GI50 was inactive: > 100 µM.
With `COc1ccc(Nc2ccc3ccccc3c2-c2c(O)ccc3ccccc23)cc1` the GI50 was inactive: 15.4 µM.
In the case of `CC1C2CCC3C(O)C2(CC(O)C2(O)C1CC(O)C2(C)C)CC3(C)O` (stereo not drawn), the GI50 is reported as inactive: > 100 µM.
For `Oc1c(C(O)(c2ccccc2)c2ccc3ccccc3c2O)ccc2ccccc12`, the GI50 was inactive: 14.2 µM.
For `CN(C)/C=C/C(=O)c1cccc(C(=O)/C=C/N(C)C)n1`, the GI50 was inactive: > 100 µM.
With `O=C(CSc1nc2ccc(I)cc2c(=O)n1Cc1ccccc1)NN1C(=O)CCC1=O` the GI50 was inactive: 55.8 µM.
In the case of `Cc1cc(NS(=O)(=O)c2ccc(NC(=O)c3cccc4c(NNc5ccc(S(=O)(=O)N=C(N)N)cc5)c5ccccc5nc34)cc2)no1`, the GI50 is reported as inactive: 46.8 µM.
With `Cc1c(-c2ccccc2)n[nH]c1NC1(C)C(=O)N(/N=C/c2ccccc2)N=C1c1ccccc1` (stereo not drawn) the GI50 was inactive: > 100 µM.
For `COc1ccc(C2=C(Cl)c3cc(OC)c(OC)cc3C2=O)cc1OC`, the GI50 was inactive: > 100 µM.
For `COc1ccc2cc(C(=O)O)ccc2c1OC`, the GI50 was inactive: > 100 µM.
For `O=C(Nc1ccccc1)c1ccc(Cl)c([N+](=O)[O-])c1`, the GI50 was inactive: 17.8 µM.
For `COc1cc(/C=c2\sc3n(c2=O)C(c2ccc(Cl)cc2)C2=C(CCCC2C)N=3)cc(OC)c1OC` (stereo not drawn), the GI50 was inactive: > 100 µM.
With `COc1ccc(CN(Cc2ccc(OC)cc2)C(=O)CC2(O)CCc3ccccc3C2)cc1` (stereo not drawn) the GI50 was inactive: > 100 µM.
With `O=C1OC2(CCCCC2)C(Oc2ccc(Cl)cc2)=C1F` the GI50 was inactive: 56.9 µM.
For `N/C(=N\c1ccc(Cl)c(Cl)c1)c1ccccc1N`, the GI50 was inactive: 29.2 µM.
With `COc1cc(C2SCC(=O)N2NC(=O)c2ccc(NC(C)=O)cc2OC)ccc1O` (stereo not drawn) the GI50 was inactive: > 100 µM.
`NNC(=O)C(=O)N/N=C1\CCC(=O)CC1C(=O)CCC(=O)Nc1ccc(Cl)cc1` (stereo not drawn) was tested, and the GI50 was inactive: > 100 µM.

Source: ChEMBL document CHEMBL1201862, “PubChem BioAssay data set” (2004)
